Several values for one entry are separate records, joined by “and”; a condition that tells them apart may be missing. Equal values may be shown once. Whole data set: some 5,300 compounds, median “PER2::LUC luminescence relative to vehicle control” near 0.96, cut for the highest 2% near 1.3. The list shows a part of the results.
Test system: mPer2Luc MEF
Test: PER2::LUC luminescence relative to vehicle control (fold of vehicle); higher = higher PER2::LUC reporter signal
Conditions: 10 µM
How it was run: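 Mouse embryonic fibroblasts carrying the mPer2Luc reporter were seeded at ~3000 cells per well in 384-well plates, 48 h before compounds from commercial libraries were added at 10 μM. Cells were grown in DMEM with 10% FBS at 37 °C and 5% CO2. Luminescence was read with the ONE-Glo luciferase assay system 24 h and 30 h after treatment, followed by an alamarBlue viability assay. The value is PER2::LUC luminescence as fold of vehicle control.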

Structure (SMILES)	PER2::LUC luminescence (time after treatment 24 h)	PER2::LUC luminescence (time after treatment 30 h)
CSC(=N)NCCC[C@H](N)C(=O)O	0.874	0.765
S=C(S)N1CCCC1	1.27	1.02
Cc1o[nH]c(=O)c1CCC(N)C(=O)O (configuration not stated)	0.959	0.829
CC(C)COc1ccc(CNC(=O)N(Cc2ccc(F)cc2)C2CCN(C)CC2)cc1	0.639	0.607
C=CC[C@@H]1[C@H](O)CC[C@@]2(C)[C@H]1CC[C@@H]1[C@@H]2CC[C@]2(C)[C@@H]([C@H](C)CCCC(C)C)CC[C@@H]12	0.994	0.987
CC(=O)CC(c1ccccc1)c1c(O)c2ccccc2oc1=O (configuration not stated)	1.23	0.93
CN(c1ccccc1CNc1nc(Nc2ccc3c(c2)CC(=O)N3)ncc1C(F)(F)F)S(C)(=O)=O	0.377	0.28
CCO/N=C1\c2ccccc2-c2nc(C#N)c(C#N)nc21	0.664	0.619
NS(=O)(=O)c1cc2c(cc1Cl)NC(C1CC3C=CC1C3)NS2(=O)=O (configuration not stated)	1.03	0.932
O=C1NS(=O)(=O)c2ccccc21	0.864	1.04
CC/C(=C(\c1ccc(O)cc1)c1ccc(OCCNC)cc1)c1ccccc1	0.74	0.756
Oc1ccc([C@H]2Oc3cc(O)cc(O)c3C[C@H]2O)cc1	0.958	0.941
COc1cc(-c2oc3cc(O)cc(O)c3c(=O)c2O)ccc1O	1.02	1.23
Cc1cc(Cn2nnc3c(-c4ccco4)nc(N)nc32)ccc1N	0.986	0.986
Cc1cc(OCc2nc(-c3ccccc3Cl)cs2)ccc1CCC(=O)O	1.11	1.28
O=C(Nc1cccc(C(=O)Nc2ccc(S(=O)(=O)O)c3cc(S(=O)(=O)O)cc(S(=O)(=O)O)c23)c1)Nc1cccc(C(=O)Nc2ccc(S(=O)(=O)O)c3cc(S(=O)(=O)O)cc(S(=O)(=O)O)c23)c1	1.01	0.936
COc1cc2nc(C3CC3)nc(N3CCN(c4ccccc4OC)CC3)c2cc1OC	0.63	0.796
CNC(=O)c1cc(Oc2ccc(NC(=O)Nc3ccc(Cl)c(C(F)(F)F)c3)cc2)ccn1	0.556 and 0.486	0.816 and 0.513
CNC(=O)c1ccccc1Nc1cc(Nc2ccc(N3CCOCC3)cc2OC)ncc1C(F)(F)F	0.532	0.485
CN1C(CCl)Nc2cc(Cl)c(S(N)(=O)=O)cc2S1(=O)=O (configuration not stated)	0.976	0.898
C=CC1=C(C(=O)O)N2C(=O)[C@@H](NC(=O)/C(=N\O)c3csc(N)n3)[C@H]2SC1	1.08	0.951

Structure (SMILES)	PER2::LUC luminescence (time after treatment 24 h)	PER2::LUC luminescence (time after treatment 30 h)
Nc1ncnc2c1nc(Br)n2C1OC2COP(=O)(O)O[C@@H]2C1O (some centres not stated)	0.753	0.913
OCc1ccccc1O[C@@H]1O[C@H](CO)[C@@H](O)[C@H](O)[C@H]1O	0.81 and 1.04	1.16 and 0.919
C[n+]1cc(NC(=O)c2cccc(C(=O)Nc3cc4ccccc4[n+](C)c3)n2)cc2ccccc21	0.697	0.604
CCCCCCCCCCCCC/C=C/[C@@H](O)[C@H](CO)NC(=O)CCCCC	1.1	1.04
O=C1NC(O)CCN1[C@@H]1O[C@H](CO)[C@@H](O)[C@H]1O (some centres not stated)	1.21	1.19
Ic1ccc(N2CCN(Cc3c[nH]c4ncccc34)CC2)cc1	1.29 and 0.924	1.01 and 0.827
C=C1CC[C@@H]2[C@](C)(CO)[C@H](O)CC[C@@]2(C)[C@@H]1C/C=C1/C(=O)OC[C@H]1O	0.83	0.72
CC(=O)NS(=O)(=O)c1ccc(N)cc1	0.956 and 0.97	0.953 and 0.925
CCOC(=O)c1ccc(-n2cc(Cc3cnc(OCC)nc3)c(=O)nc2SCc2ccc(F)cc2)cc1	1.08	1.08
Cc1cn([C@H]2C=C[C@@H](CO)O2)c(=O)[nH]c1=O	0.963	0.912
Nc1nc(Cl)nc2c1ncn2[C@@H]1O[C@H](CO)[C@@H](O)[C@H]1O	1.02	1.07
O=c1c(O[C@@H]2O[C@H](CO)[C@H](O)[C@H](O)[C@H]2O)c(-c2ccc(O)c(O)c2)oc2cc(O)cc(O)c12	0.946	0.735
Cc1c(-c2cnccn2)ssc1=S	0.829	0.988
NO	1.02	0.884
C(=C\c1ccccc1)/CN1CCN(C(c2ccccc2)c2ccccc2)CC1	0.857	0.838
COc1cccc(Nc2ncnn3ccc(CN4CC[C@@H](N)[C@H](O)C4)c23)c1	0.391	0.45
CCN(CC)CCNC(C(=O)OCCC(C)C)c1ccccc1 (configuration not stated)	0.814 and 0.816	1.07 and 0.796
C[C@@H]1C[C@H]2[C@@H]3CCC4=CC(=O)C=C[C@]4(C)[C@@]3(F)[C@@H](O)C[C@]2(C)[C@@]1(O)C(=O)COP(=O)(O)O	0.739	1.02
Cc1cccc(CC(=O)N2CCc3c2ccc(-c2cn(C)c4ncnc(N)c24)c3F)n1	1.24	1.07
Nc1cc(Cl)c(NC2=NCCN2)c(Cl)c1	1.02	1.08
CC(C)OC(=O)OCOP(=O)(CO[C@H](C)Cn1cnc2c(N)ncnc21)OCOC(=O)OC(C)C	1.17	1.05

Structure (SMILES)	PER2::LUC luminescence (time after treatment 24 h)	PER2::LUC luminescence (time after treatment 30 h)
CC(C)CCNC(=O)c1ccc2c(c1)nc(Nc1n[nH]c3ccc(-c4ccccc4OC(F)(F)F)cc13)n2C1CCC(O)CC1 (configuration not stated)	0.526	0.553
Cc1ccc(NC(=O)c2cccc(C(C)(C)C#N)c2)cc1Nc1ccc2ncn(C)c(=O)c2c1	0.564	0.556
OCCN(CCO)c1nc(N2CCCCC2)c2nc(N(CCO)CCO)nc(N3CCCCC3)c2n1	0.969 and 0.694	0.924 and 1.03
CC(C)(C)OC(=O)N1CCC(OCc2nc(-c3ccncc3)no2)CC1	0.986	0.843
CC[C@H](CO)Nc1nc(NCc2ccccc2)c2ncn(C(C)C)c2n1	0.505	0.942
Cc1nc(C(=O)N2CCC[C@H]2Cc2nnc(-c3ccccc3)o2)c(-c2ccccc2F)s1	1.06	0.881
CN(c1nccc(=O)[nH]1)C1CCN(c2nc3ccccc3n2Cc2ccc(F)cc2)CC1	1.07	1.45
CCS(=O)(=O)N1CCC[C@@H]2CN3CCc4cc(OC)ccc4[C@@H]3C[C@@H]21	0.924	0.903
O=C(O)c1ccccc1C(=O)Nc1ccc(S(=O)(=O)Nc2nccs2)cc1	0.993	0.892
C[N+](C)(C)CC(=O)O	1.09 and 0.92	0.992 and 0.944
C[C@]12CC[C@@H]3c4ccc(OC(=O)c5ccccc5)cc4CC[C@H]3[C@@H]1CC[C@@H]2O	0.887	1.01
Cc1ccc(F)c(NC(=O)Nc2ccc(-c3cccc4[nH]nc(N)c34)cc2)c1	1.3	1.05
CN1CCN(C(c2ccccc2)c2ccccc2)CC1	0.813 and 0.808	0.84 and 0.755
CC(C)OC(=O)C1=CN(C(=O)c2ccc(F)c(F)c2)CC(C)(C)c2c1[nH]c1ccccc21	1.23	1.24
COC(=O)[C@@H]1CC2=CC(=O)CC[C@]2(C)[C@@]23O[C@@H]2C[C@@]2(C)[C@@H](CC[C@@]24CCC(=O)O4)[C@H]13	0.858	0.96
C[C@H](CCC(=O)NCCS(=O)(=O)O)[C@H]1CC[C@H]2[C@@H]3CC[C@@H]4C[C@H](O)CC[C@]4(C)[C@H]3C[C@H](O)[C@]12C	0.992	0.915
C[C@@H](O)[C@@H]1NC(=O)[C@H](CCCCN)NC(=O)[C@@H](Cc2c[nH]c3ccccc23)NC(=O)[C@H](Cc2ccccc2)NC(=O)[C@@H](NC(=O)[C@H](N)Cc2ccccc2)CSSC[C@@H](C(=O)N[C@H](CO)[C@@H](C)O)NC1=O	1.04	1.04
C[C@H](CCC(=O)O)[C@H]1CC[C@H]2[C@@H]3[C@@H](O)C[C@@H]4C[C@H](O)CC[C@]4(C)[C@H]3CC[C@]12C	0.988	1.06
O=C(CCCN1CCN(c2ccccn2)CC1)c1ccc(F)cc1	1	0.792
Cc1cc(NC(=O)Nc2ccc3c(ccn3C)c2)sn1	1.59	1.52
O=C(Nc1ccncc1)c1cc([N+](=O)[O-])ccc1Cl	1.18	1.22

Structure (SMILES)	PER2::LUC luminescence (time after treatment 24 h)	PER2::LUC luminescence (time after treatment 30 h)
CCCCC/C=C/C=C1/C(=O)C=C[C@@H]1C/C=C\CCCC(=O)O	1.08	0.962
NC[C@@H]1O[C@@H](O[C@H]2[C@H](O)[C@@H](O[C@H]3O[C@H](CO)[C@@H](O)[C@H](N)[C@H]3O)[C@H](N)C[C@@H]2N)[C@@H](O)[C@H](O)[C@H]1O	0.914	0.881
COCCCN1CCC(NC(=O)c2cc(Cl)c(N)c3c2OCC3)CC1	1.01	0.976
N[C@@H](CS(=O)O)C(=O)O	1.13	0.928
C[C@@H](CN1CCC(Cc2ccccc2)CC1)[C@@H](O)c1ccc(O)cc1	0.832	0.874
CNc1nc(Nc2cn(C(C)(C)C#N)nc2C)ncc1C(F)(F)F	1.01	1.03
CC1CC(OC(=O)c2ccccc2O)CC(C)(C)C1 (configuration not stated)	1.19	0.857
C=CC(=O)N1C/C(=C\c2ccc([N+](=O)[O-])cc2)C(=O)/C(=C/c2ccc([N+](=O)[O-])cc2)C1	0.912	0.857
COC(=O)[C@H](NC(=O)c1cc(-c2ccccc2)nc2ccccc12)c1ccccc1	1.05	0.83
COC(=O)C1=C(C#N)NC(C)=C(C(=O)OC(C)C)C1c1cccc([N+](=O)[O-])c1 (configuration not stated)	1.02	0.893
N#Cc1cc2nc(O)c(O)nc2cc1[N+](=O)[O-]	0.923	0.774
COc1ccc(C2CC(=O)c3c(O)cc(OC4OC(COC5OC(C)C(O)C(O)C5O)C(O)C(O)C4O)cc3O2)cc1OC (configuration not stated)	0.918	0.791
CN(C)C(=O)[C@H](O)[C@H](Cc1ccccc1)NC(=O)c1cc2cc(Cl)ccc2[nH]1	1.1	1.07
O=C(Oc1cc(S(=O)(=O)c2ccccc2)ccc1[N+](=O)[O-])c1ccc(Cl)cc1	1	0.99
CCC(=O)NC1Cc2ccccc2C(c2ccccc2)C1 (configuration not stated)	0.844	0.992
Cc1cc(CN2CCN(c3c(Br)cnc4nc(-c5ccc(N6CCN(C)CC6)cc5)[nH]c34)CC2)no1	0.462	0.367
CC(=O)/C=C1/C(=O)N(C)c2ccccc21	0.94	0.79
CCN1CCN(Cc2ccc(C(=O)Nc3ccc(C)c(Oc4ccc5c(c4)CC(=O)N5)c3)cc2C(F)(F)F)CC1	0.251	0.3

From the supplement of paper PMC9334596
